# In publication PMC12136788:
# The list shows a part of the results.
# B1: chr16:24801560:24801561:+_ENSG00000090905_ENST00000315183|hu_mus|FALSE|FALSE (ssRNA)
# RNA: GGGAGUUCUACAGUCCGACGAUCCAUUAGAGUUGCAUUCACAGUGUCACCAUUGGCUUGGCCAUUAGGGCCUGCACAUUUGUCGCCAGAGUAAUUAGAACCAUAGGCACCCCAUGUAGUACCGUAGGAGCCUCCAGUUUUUGACAACAGAGGAUUGAGCAUCA
# B2: chr11:9452432:9452433:+_ENSG00000205339_ENST00000379719|hu_hu|FALSE|FALSE (ssRNA)
# RNA: GGGAGUUCUACAGUCCGACGAUCAAAUGUCAUUGCCAAAUGUUGUGUCAUUUCUACUGCAAUAGGAGUAACUUCUUCACUAUAUUCACAGAUCAUUUUCUGAAUUACAUUGGUAAGGUCAUCAUUUUCUGUUUCUCUUAUAAUCAACAGAGGAUUGAGCAUCA
# B3: 95994332_95994631_2066_CDS_ENSMUSG00000038486_ENSMUST00000035371|mouse|control|control (ssRNA)
# RNA: GGGAGUUCUACAGUCCGACGAUCGCUGGAUGUAACAUCUUCAAAGUAACACUCCUCAAACAGGGAAUCCUCAAAGGACACUGACUUCAGACGCAGCCCGAUGAACUUGUCAUUGAAGUACUGUCCCCCUCGGUGGAUCUGAUUCAACAGAGGAUUGAGCAUCA
# B4: chr17:55760890:55760891:+_ENSG00000153944_ENST00000284073|hu_hu|FALSE|FALSE (ssRNA)
# RNA: GGGAGUUCUACAGUCCGACGAUCUGUAAACAAUUUCAUAUGCAAUAUAAUACAGAAAGCAUGGCUGACCUUCAAUAAAAAAUGUAGUAAACGAUAUUGCUUUAUUCUUGAAUAUGCUGCAGUGAGUGAAUGGCAGAAUGAAGCCAACAGAGGAUUGAGCAUCA
# B5: chr13:30086970:30086971:-_ENSG00000139514_ENST00000380752|hu_hu|FALSE|FALSE (ssRNA)
# RNA: GGGAGUUCUACAGUCCGACGAUCUGAUACGGAGGCUCAGCCCAUGGCCAUCCACCCGCCCUCCACCGCCGUGUUCACAAAUUCUUGCACUUCUCUCCAAGAACCUUCUGGGGGCACAGGGAGGGUACAAGUGCCCUCAAUUUACAACAGAGGAUUGAGCAUCA
# B6: chr9:111179681:111179682:+_ENSMUSG00000046785_ENSMUST00000060711|mus_hu|motif|central (ssRNA)
# RNA: GGGAGUUCUACAGUCCGACGAUCAACUUAAUAUUACAUAGUGGAUUUGGUGUGUAUAUUUGGUUUUGAAUCCUGAGUUUACGGCUUACUGUGUUUACCAGGGAAAACCGCAAUUUGUUAUCCUUCUCUCCUUUCAUACAACAGCAACAGAGGAUUGAGCAUCA
# B7: chr5:128440902:128440903:+_ENSG00000066583_ENST00000173527|hu_mus|hu_hu_hu_mus_True|38_98 (ssRNA)
# RNA: GGGAGUUCUACAGUCCGACGAUCUUGAACGGUGCUGCCAAGACCUUUGGGGUAUUGUUCCGUUAUGAUAACUGGAAUCCCUAAGAUCCGAGCUCCUUGCAACAAUCUCUGUCCCACACUAAUGAUGUCCCCAAAGUAUUUGAUCAACAGAGGAUUGAGCAUCA
# B8: chr7:90019433:90019434:+_ENSMUSG00000057706_ENSMUST00000082237|mus_hu|mus_mus_mus_hu_True|78_78 (ssRNA)
# RNA: GGGAGUUCUACAGUCCGACGAUCAAAUAAUACAGUGUUCUUUGCCAUAAGGCCAUAUAAAAAUAAAAAGAUUUAACCCAGCUACAAAAAAGUUCACUGAACUUAAAUUAAAAUACUUGUAAACAUCUUUGCAAUAUGAAAUAUCAACAGAGGAUUGAGCAUCA
# B9: 208576698_208576818_349_CDS_ENSG00000163249_ENST00000295414|human|control|control (ssRNA)
# RNA: GGGAGUUCUACAGUCCGACGAUCGAUGUGCUGCAGGUGGUGGCCCUCGCCCUCUCCGAAAUCCAACUCGGCAGGCUCCACCACAGCGGGCGCUACCGCCACCGCGUCCCCGGACACCGCCUCGUAGAUGUCGGACGCGCAGUACAACAGAGGAUUGAGCAUCA
# B10: chr2:232320318:232320319:-_ENSG00000115053_ENST00000322723|hu_mus|FALSE|FALSE (ssRNA)
# RNA: GGGAGUUCUACAGUCCGACGAUCACUAUUAAAGUCUACAAAACCAAACCCUUUGGAAGAACCAGUUUCCCGAUCAGUGACUAUUCUUGCACGAACAGAGCCCUCAAAUGAUUCUUUUAAGGUCUCUUCAGUGGUAUCCUCAGACAACAGAGGAUUGAGCAUCA
# B11: 95850769_95853761_465_CDS_ENSG00000164941_ENST00000520526|human|control|control (ssRNA)
# RNA: GGGAGUUCUACAGUCCGACGAUCAACUCAAGGUUAAGUUGUCUUCAAUGAAAAUCUGUAUUACCUCCUGAUAGUUGCCAGAUCUCAAACAAAUAUGGACUUGACUAUAUGGAGUCAACUGUUGAGAUGUACUAUCAGAAGAAGCAACAGAGGAUUGAGCAUCA
# B12: chr16:94664741:94664742:+_ENSMUSG00000040785_ENSMUST00000117648|mus_hu|mus_mus_mus_hu_False|28_48 (ssRNA)
# RNA: GGGAGUUCUACAGUCCGACGAUCUGGUACUGAUCUUGGUAGCUGAUAUUCAGGAGAAAGGCUGGCCAAGGGUGUAUAUAUGCUGGUGAACUGCGACAAACCUGGUACCAUGUUAAUGUAUGCUGGCGGUGUCUGGGUGAUAUCCAACAGAGGAUUGAGCAUCA
# B13: chr1:243289802:243289803:-_ENSG00000143702_ENST00000366542|hu_mus|FALSE|FALSE (ssRNA)
# RNA: GGGAGUUCUACAGUCCGACGAUCAAGGAAACGUCAUUCGUGUACUGUAACAUCCUCCUCUUCCCCAUCAGGGUUGAACCUAUUGAAAUGGAUACUGAAAUCAGCCUCAGAUUCAGCAUUCUCAAACUCAGUGGAGGCUGCUGCCAACAGAGGAUUGAGCAUCA
# B14: chr19:40639365:40639366:-_ENSMUSG00000025007_ENSMUST00000025979|mus_hu|FALSE|FALSE (ssRNA)
# RNA: GGGAGUUCUACAGUCCGACGAUCAGCUGCCACCUGGGGUAGACAGUCAGGACGAGAUUCAAAGAUCACCAGCAGAACUCCAAUUGGGACAGUCACUUGUUCCAGUUCCAAGUUUUUGGCGAUUCGGGUGCGGCGCAAAACACGCAACAGAGGAUUGAGCAUCA
# Biological target: T1, UNK ZnF1-3 (human, UniProt Q9C0B0 31-174)
# T1 sequence: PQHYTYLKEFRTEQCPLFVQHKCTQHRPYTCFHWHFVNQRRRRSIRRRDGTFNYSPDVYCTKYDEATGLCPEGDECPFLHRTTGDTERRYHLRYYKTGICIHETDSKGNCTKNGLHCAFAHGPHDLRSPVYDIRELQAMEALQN
# Experiment: nsRBNS (natural sequence RNA bind-n-seq); RBNS binding buffer (assumed for nsRBNS): 25 mM Tris pH 7.5, 150 mM KCl, 3 mM MgCl2, 0.01% Triton X-100, 500 ug/ml BSA, 20 U/ml SUPERase-In, 4 C; UNK is unkempt and MSI1 is Musashi-1; names of the RNAs are library labels; protein concentration not given here; high values mean tight binding
row,Binder,binding signal [enrichment R]
1,B1,0.964
2,B2,0.645
3,B3,0.883
4,B4,1.37
5,B5,0.953
6,B6,0.715
7,B7,0.632
8,B8,3.22
9,B9,0.573
10,B10,0.352
11,B11,0.442
12,B12,1.06
13,B13,0.719
14,B14,1.33
